Viability of KB3-1 and Nalm-6 cells after 48 h of drug alone (CellTiter-Glo), 11 doses over about 4.5 log units. % of DMSO wells, lower = more cell loss; AC50 from the fitted curve, lower = more potent. No active / inactive call. Nalm-6 was screened in two runs. AC50 is listed only for well-fitted inhibitory curves. KB3-1 is a HeLa-derived carcinoma line, Nalm-6 a B-cell precursor leukaemia line.
Tests used:
Nalm-6 = experiment: viability (% of DMSO control); higher = more viable cells
Experimental: (§1)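 Eleven-dose screen of the NCATS MIPE 3 library on cells without co-treatment; CellTiter-Glo after 48 h, as % of DMSO wells.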

KB3-1 = experiment: as above
Experimental: as §1

COc1ccc(COc2cc3oc(=O)c4cc(C(C)O)ccc4c3cc2OC)cc1 (stereo not given)
Details	viability [%]
KB3-1, 0.00078 µM	107
KB3-1, 0.00234 µM	108
KB3-1, 0.00702 µM	109
KB3-1, 0.0211 µM	109
KB3-1, 0.0632 µM	109
KB3-1, 0.19 µM	109
KB3-1, 0.569 µM	104
KB3-1, 1.71 µM	105
KB3-1, 5.12 µM	99.4
KB3-1, 15.4 µM	106
KB3-1, 46.1 µM	86.4
Nalm-6, run: 1, 0.00078 µM	118
Nalm-6, run: 1, 0.00234 µM	106
Nalm-6, run: 1, 0.00702 µM	106
Nalm-6, run: 1, 0.0211 µM	115
Nalm-6, run: 1, 0.0632 µM	116
Nalm-6, run: 1, 0.19 µM	114
Nalm-6, run: 1, 0.569 µM	119
Nalm-6, run: 1, 1.71 µM	117
Nalm-6, run: 1, 5.12 µM	115
Nalm-6, run: 1, 15.4 µM	109
Nalm-6, run: 1, 46.1 µM	70.5
Nalm-6, run: 2, 0.00078 µM	109
Nalm-6, run: 2, 0.00234 µM	100
Nalm-6, run: 2, 0.00702 µM	104
Nalm-6, run: 2, 0.0211 µM	102
Nalm-6, run: 2, 0.0632 µM	103
Nalm-6, run: 2, 0.19 µM	104
Nalm-6, run: 2, 0.569 µM	102
Nalm-6, run: 2, 1.71 µM	107
Nalm-6, run: 2, 5.12 µM	99.1
Nalm-6, run: 2, 15.4 µM	103
Nalm-6, run: 2, 46.1 µM	58.6

COc1ccc(-c2oc3cc(OC)ccc3c2C(=O)c2ccc(C#N)cc2)cc1
Details	viability [%]
KB3-1, 0.00078 µM	92.6
KB3-1, 0.00234 µM	103
KB3-1, 0.00702 µM	99
KB3-1, 0.0211 µM	102
KB3-1, 0.0632 µM	110
KB3-1, 0.19 µM	102
KB3-1, 0.569 µM	103
KB3-1, 1.71 µM	105
KB3-1, 5.12 µM	100
KB3-1, 15.4 µM	91.8
KB3-1, 46.1 µM	89.9
Nalm-6, run: 1, 0.00078 µM	99.3
Nalm-6, run: 1, 0.00234 µM	98.8
Nalm-6, run: 1, 0.00702 µM	104
Nalm-6, run: 1, 0.0211 µM	115
Nalm-6, run: 1, 0.0632 µM	117
Nalm-6, run: 1, 0.19 µM	124
Nalm-6, run: 1, 0.569 µM	115
Nalm-6, run: 1, 1.71 µM	123
Nalm-6, run: 1, 5.12 µM	123
Nalm-6, run: 1, 15.4 µM	121
Nalm-6, run: 1, 46.1 µM	34.5
Nalm-6, run: 2, 0.00078 µM	103
Nalm-6, run: 2, 0.00234 µM	105
Nalm-6, run: 2, 0.00702 µM	105
Nalm-6, run: 2, 0.0211 µM	104
Nalm-6, run: 2, 0.0632 µM	109
Nalm-6, run: 2, 0.19 µM	104
Nalm-6, run: 2, 0.569 µM	107
Nalm-6, run: 2, 1.71 µM	103
Nalm-6, run: 2, 5.12 µM	114
Nalm-6, run: 2, 15.4 µM	105
Nalm-6, run: 2, 46.1 µM	95.9

Cc1csc(-c2nnc(Nc3ccc(Oc4ncccc4-c4ccnc(N)n4)cc3)c3ccccc23)c1 [AMG-900]
Details	viability [%]
KB3-1, 0.00078 µM	85.1
KB3-1, 0.00234 µM	81.7
KB3-1, 0.00702 µM	82.8
KB3-1, 0.0211 µM	78.9
KB3-1, 0.0632 µM	87.7
KB3-1, 0.19 µM	88.3
KB3-1, 0.569 µM	84.2
KB3-1, 1.71 µM	88.2
KB3-1, 5.12 µM	85.4
KB3-1, 15.4 µM	85.7
KB3-1, 46.1 µM	33.9
Nalm-6, run: 1, 0.00078 µM	57.7
Nalm-6, run: 1, 0.00234 µM	67.7
Nalm-6, run: 1, 0.00702 µM	68.4
Nalm-6, run: 1, 0.0211 µM	72
Nalm-6, run: 1, 0.0632 µM	71.6
Nalm-6, run: 1, 0.19 µM	60.3
Nalm-6, run: 1, 0.569 µM	62.6
Nalm-6, run: 1, 1.71 µM	64.1
Nalm-6, run: 1, 5.12 µM	87.5
Nalm-6, run: 1, 15.4 µM	83
Nalm-6, run: 1, 46.1 µM	23.5
Nalm-6, run: 2, 0.00078 µM	77.4
Nalm-6, run: 2, 0.00234 µM	89.3
Nalm-6, run: 2, 0.00702 µM	84.4
Nalm-6, run: 2, 0.0211 µM	90.3
Nalm-6, run: 2, 0.0632 µM	81.2
Nalm-6, run: 2, 0.19 µM	78.5
Nalm-6, run: 2, 0.569 µM	73.2
Nalm-6, run: 2, 1.71 µM	71.5
Nalm-6, run: 2, 5.12 µM	78.2
Nalm-6, run: 2, 15.4 µM	88.3
Nalm-6, run: 2, 46.1 µM	16.3

CC(c1cc2ccccc2s1)N(O)C(N)=O (stereo not given) [Zileuton]
Details	viability [%]
KB3-1, 0.00156 µM	94.1
KB3-1, 0.00468 µM	97.3
KB3-1, 0.014 µM	103
KB3-1, 0.0421 µM	102
KB3-1, 0.126 µM	103
KB3-1, 0.379 µM	104
KB3-1, 1.14 µM	107
KB3-1, 3.41 µM	109
KB3-1, 10.2 µM	110
KB3-1, 30.7 µM	104
KB3-1, 92.2 µM	97.5
Nalm-6, run: 1, 0.00156 µM	81.8
Nalm-6, run: 1, 0.00468 µM	99
Nalm-6, run: 1, 0.014 µM	99
Nalm-6, run: 1, 0.0421 µM	105
Nalm-6, run: 1, 0.126 µM	110
Nalm-6, run: 1, 0.379 µM	104
Nalm-6, run: 1, 1.14 µM	107
Nalm-6, run: 1, 3.41 µM	112
Nalm-6, run: 1, 10.2 µM	110
Nalm-6, run: 1, 30.7 µM	97.3
Nalm-6, run: 1, 92.2 µM	88.4
Nalm-6, run: 2, 0.00156 µM	90.2
Nalm-6, run: 2, 0.00468 µM	96
Nalm-6, run: 2, 0.014 µM	92.3
Nalm-6, run: 2, 0.0421 µM	94.9
Nalm-6, run: 2, 0.126 µM	102
Nalm-6, run: 2, 0.379 µM	102
Nalm-6, run: 2, 1.14 µM	103
Nalm-6, run: 2, 3.41 µM	104
Nalm-6, run: 2, 10.2 µM	106
Nalm-6, run: 2, 30.7 µM	93.6
Nalm-6, run: 2, 92.2 µM	88.3

C\C1=C(\C=C(C#N)/C(=O)N1)C2=C[N]3C=CN=C3C=C2 [Olprinone]
Details	viability [%]
KB3-1, 0.00078 µM	108
KB3-1, 0.00234 µM	108
KB3-1, 0.00702 µM	105
KB3-1, 0.0211 µM	109
KB3-1, 0.0632 µM	103
KB3-1, 0.19 µM	107
KB3-1, 0.569 µM	106
KB3-1, 1.71 µM	109
KB3-1, 5.12 µM	103
KB3-1, 15.4 µM	110
KB3-1, 46.1 µM	108
Nalm-6, run: 1, 0.00078 µM	111
Nalm-6, run: 1, 0.00234 µM	129
Nalm-6, run: 1, 0.00702 µM	119
Nalm-6, run: 1, 0.0211 µM	121
Nalm-6, run: 1, 0.0632 µM	113
Nalm-6, run: 1, 0.19 µM	124
Nalm-6, run: 1, 0.569 µM	119
Nalm-6, run: 1, 1.71 µM	120
Nalm-6, run: 1, 5.12 µM	126
Nalm-6, run: 1, 15.4 µM	123
Nalm-6, run: 1, 46.1 µM	117
Nalm-6, run: 2, 0.00078 µM	110
Nalm-6, run: 2, 0.00234 µM	111
Nalm-6, run: 2, 0.00702 µM	112
Nalm-6, run: 2, 0.0211 µM	105
Nalm-6, run: 2, 0.0632 µM	108
Nalm-6, run: 2, 0.19 µM	109
Nalm-6, run: 2, 0.569 µM	109
Nalm-6, run: 2, 1.71 µM	108
Nalm-6, run: 2, 5.12 µM	109
Nalm-6, run: 2, 15.4 µM	109
Nalm-6, run: 2, 46.1 µM	100

Reference: the supplement of paper PMC4996465
